Measured values from PubChem BioAssay AID1347044 (National Center for Advancing Translational Sciences (NCATS), 2019).
Some of the results follow. Shown are side measurements of this screen, not its main read-out; they come without a call. The list favours compounds with an active or inconclusive main result. Potencies come from curve fits of mixed quality, noted in brackets.

assay: Natriuretic polypeptide receptor (hNpr1) antagonism - Confirmation; conditions: HEK293 hNpr1 cGMP GloSensor luminescence, ANP-stimulated; measured here: HEK-hNpr1 cytotoxicity, CellTiter-Glo; note: nearly all actives have a fitted effect of over 70% in size
Protocol: In order to identify small molecular compounds that inhibit the hNpr1 receptor we developed a high-throughput assay to measure inhibition of the guanylate cyclase activity of the receptor. cGMP production was measured using a circular permutated Firefly luciferase (FLuc) enzyme functionally linked to the cGMP binding domain of human phosphodiesterase 5 (GloSensor technology pGS-40F, (Fan, F. et al. 2008). The cGMP-sensor was expressed in human embryonic kidney 293 (HEK-293) cells and FLuc activity was measured after stimulation with hNrp agonist peptide. hNrp agonists activates the receptor's associated guanylyl cyclase (GC) domain producing cGMP which then binds to the GloSensor resulting in FLuc activation, the enzymatic activity of which can be measured as bioluminescence with addition of luciferin substrate. A cytotoxicity counter-screen using the HEK-hNpr1-cGMP-sensor cells was also performed on the follow-up compounds. F. Fan, B. F. Binkowski, B. L. Butler, P. F. Stecha, M. K. Lewis, K. V. Wood, Novel genetically encoded biosensors using firefly luciferase. ACS Chem Biol 3, 346-351 (2008).
PROTOCOL TABLES (as described by Inglese J, Shamu CE and Guy RK. 2007) SEQUENCE No. (e.g., 1, 2, 3, etc.); PARAMETER (e.g., Cells, Incubation, Reagent, etc.); VALUE and DESCRIPTION. GLOSENSOR PROTOCOL 1. Cells. Seed 1500 HEK293 cGMP-sensor cells expressing hNpr1 per well in 4uL into Greiner 1536-well white/solid bottom high base, tissue culture-treated plates. 2. Incubation. Incubate plated cells at 37C in 5% CO2, 95% RH overnight. 3. Reagent. Add 1uL per well GloSensor reagent from Promega (2% final concentration) or CO2 independent media vehicle control to respective columns of Greiner 1536-well plates. 4. Incubation. Incubate plated cells at room temperature for 2 h, protect from light. 5. Compounds. Library compounds and A-71915 control added at 23 nL per well, transferred by Pin Tool. 6. Incubation. Incubate plated cells for 30 min. at room temperature, protect from light. 7. Detector. GloSensor baseline pre-read luminescence measured using CCD-based camera (Viewlux). 8. Compound. Add 1uL of hNppA peptide to 0.1 nM final concentration to stimulate hNpr1 or CO2 independent media as vehicle control. 9. Incubation. Incubate treated cells at room temperature for 20 min., protect from light. 10. Detector. GloSensor post-hNppA luminescence measured using CCD-based camera (Viewlux). NOTES (numbers refer to Sequence numbers above) 1. HEK293 cells expressing hNpr1 and GIP/pGS-40F grown to 85-95% confluence (48-72 h) in T175 culture flasks (CO2 independent media supplemented with 10% FBS, 1% Pen/Strep antibiotics and 1 ug/mL puromycin). Trypsinize and harvest cells from T175 culture flasks and filter through 40 um cell strainer. Cells counted with Invitrogen Countess (30,000,000 - 50,000,000 cells/flask). Cells diluted to a final concentration of 375 cells/uL in CO2 independent media and a Millipore multidrop used to dispense 1500 cells per well (4uL/well) into 13 1536-well Greiner White/Solid bottom, high base tissue-culture treated (TC) plates and one Aurora 1536-well Black/Clear bottom, low base, TC plate (for visual inspection of cell health throughout the duration of the assay). 2. Cells incubated overnight at ambient temperature, 24 h. at 37C in 95% RH incubator protected from light, covered with metal lid with gas-exchange holes. 3. Prepare GloSensor Reagent (Promega): Reconstitute GloSensor luciferase substrate by adding 8.2mL Hepes buffer to 250mg substrate, mix well, protect from light and stored at -80C. Prepare a fresh 12% GloSensor solution in CO2 independent supplemented plating media (see above). Mix well and store at ambient temperature, protected from light. 1uL 12% GloSensor Luciferase Reagent added (2% final concentration) to respective columns of 13 x 1536-well Greiner plate with BioRaptr, 1uL CO2 independent plating media added to respective columns as vehicle control with BioRaptr. 4. […]
Tags give direction and shape of the fitted curve.

SMILES | CC50
COc1cc2c(cc1OCc1ccncc1)NC(=O)C21CCN(c2ncc(F)cn2)CC1 | 39.6 µM [falling, partial curve]
COc1cc2c(cc1OCc1ccccc1)NC(=O)C21CCN(c2ccccn2)CC1 | 35.3 µM [falling, single point]
CCn1nccc1C(=O)N1[C@H]2CC[C@@H]1c1cnc(-c3ccc(F)cc3)nc1C2 | 13.7 µM [falling, full curve]
Cn1cccc1C(=O)N1[C@H]2CC[C@@H]1c1cnc(-c3ccc(F)cc3)nc1C2 | 9.68 µM [falling, partial curve]
O=C(C1CCC1)N1[C@H]2CC[C@@H]1c1cnc(-c3ccc(F)cc3)nc1C2 | 17.2 µM [falling, partial curve]
COc1cc2c(cc1Oc1cccc(N(C)C)c1)NC(=O)C21CCN(Cc2ccccc2)CC1 | 21.7 µM [falling, partial curve]
Cc1cc(C(=O)N2[C@H]3CC[C@@H]2c2cnc(-c4ccc(F)cc4)nc2C3)n[nH]1 | 30.6 µM [falling, single point]
CCCS(=O)(=O)N1[C@H]2CC[C@@H]1c1cnc(-c3ccc(F)cc3)nc1C2 | 21.7 µM [falling, partial curve]
COc1cc2c(cc1Oc1cccc(N(C)C)c1)NC(=O)C21CCN(CCC(C)C)CC1 | 22.2 µM [falling, partial curve]
Cc1ccsc1C(=O)N1[C@H]2CC[C@@H]1c1cnc(-c3ccc(F)cc3)nc1C2 | 12.2 µM [falling, partial curve]
COCCn1c(C)cc(C(=O)N2[C@H]3CC[C@@H]2c2cnc(-c4ccc(F)cc4)nc2C3)c1C | 15.3 µM [falling, partial curve]
COc1cc2c(cc1Oc1cccc(N(C)C)c1)NC(=O)C21CCN(Cc2ccccn2)CC1 | 21.7 µM [falling, partial curve]
Cc1cccc(OCC(=O)N2[C@H]3CC[C@@H]2c2cnc(-c4ccc(F)cc4)nc2C3)c1 | 43.2 µM [falling, single point]
O=C(C1CCCC1)N1[C@H]2CC[C@@H]1c1cnc(-c3ccc(F)cc3)nc1C2 | 10.9 µM [falling, partial curve]
O=C(C1CCCCC1)N1[C@H]2CC[C@@H]1c1cnc(-c3ccc(F)cc3)nc1C2 | 15.3 µM [falling, partial curve]
CC(C)C(=O)N1[C@H]2CC[C@@H]1c1cnc(-c3ccc(F)cc3)nc1C2 | 15.3 µM [falling, partial curve]
COc1ccc(CNC(=O)N2[C@H]3CC[C@@H]2c2cnc(-c4ccccc4)nc2C3)cc1 | 17.2 µM [falling, partial curve]
COc1cc2c(cc1Oc1cccc(N(C)C)c1)NC(=O)C21CCN(c2cnccn2)CC1 | 24.3 µM [falling, partial curve]
COc1cc2c(cc1Oc1ccccc1)NC(=O)C21CCN(Cc2cccc(O)c2)CC1 | 35.3 µM [falling, partial curve]
COc1cc2c(cc1Oc1ccccc1)NC(=O)C21CCN(c2cnccn2)CC1 | 35.3 µM [falling, partial curve]
O=C(c1ccsc1)N1[C@H]2CC[C@@H]1c1cnc(-c3ccc(F)cc3)nc1C2 | 17.2 µM [falling, partial curve]
CC(C)CC(=O)N1[C@H]2CC[C@@H]1c1cnc(-c3ccc(F)cc3)nc1C2 | 15.3 µM [falling, partial curve]
O=C(CC1CCCC1)N1[C@H]2CC[C@@H]1c1cnc(-c3ccccc3)nc1C2 | 15.3 µM [falling, partial curve]
COc1cc2c(cc1Oc1cccc(N(C)C)c1)NC(=O)C21CCN(Cc2cccc(O)c2)CC1 | 19.3 µM [falling, partial curve]
O=C1Nc2ccccc2C12CCN(Cc1ccc(C(F)(F)F)cc1)CC2 | 24.3 µM [falling, partial curve]
O=C(CC1CCCC1)N1[C@H]2CC[C@@H]1c1cnc(-c3ccc(F)cc3)nc1C2 | 5.44 µM [falling, full curve]
CCn1nccc1C(=O)N1[C@H]2CC[C@@H]1c1cnc(-c3ccccc3)nc1C2 | 17.2 µM [falling, partial curve]
COc1ccccc1C(=O)N1[C@H]2CC[C@@H]1c1cnc(-c3ccc(F)cc3)nc1C2 | 10.9 µM [falling, partial curve]
